The campaign covered roughly 410,000 compounds. About 6,400 (1.6%) were called active. Inconclusive results, whose numbers are uncertain, are shown with a selection of clear calls. Calls come from the whole dose curve; as a rule, active = well fitted inhibition curve with a large enough effect; inconclusive = small, poorly fitted or top-dose-only effect; inactive = no such curve, though single readings can be large or run the other way. Potencies beside an inconclusive call are fits to weak or partial responses and may not hold up.
Molecular target: Glucagon-like peptide 1 receptor (Homo sapiens) (UniProt P43220)
Sequence of UniProt P43220 (P43220 whole entry, looked up): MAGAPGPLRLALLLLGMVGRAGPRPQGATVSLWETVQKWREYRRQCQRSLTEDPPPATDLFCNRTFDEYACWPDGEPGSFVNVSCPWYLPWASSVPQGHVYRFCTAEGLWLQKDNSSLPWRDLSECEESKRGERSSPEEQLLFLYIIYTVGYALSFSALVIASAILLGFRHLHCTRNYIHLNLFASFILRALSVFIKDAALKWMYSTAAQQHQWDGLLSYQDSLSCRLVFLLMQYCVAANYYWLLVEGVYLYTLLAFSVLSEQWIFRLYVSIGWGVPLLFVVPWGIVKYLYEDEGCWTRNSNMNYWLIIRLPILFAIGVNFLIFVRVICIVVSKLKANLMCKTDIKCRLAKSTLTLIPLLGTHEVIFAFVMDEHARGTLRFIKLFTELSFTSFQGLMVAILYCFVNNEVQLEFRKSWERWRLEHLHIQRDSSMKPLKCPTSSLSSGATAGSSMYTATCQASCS
Assay: qHTS of GLP-1 Receptor Inverse Agonists (Inhibition Mode); note: nearly all actives have a fitted effect of over 55% in size
Conditions: HEK293 GLP-1R CRE-luciferase, luminescence, 24 h, GLP-1R form is constitutively active; series mostly up to 38.3 µM
Outline: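 Seeding at 200 cells/uL, 12 h culture, 24 hr compound treatment, then luciferase reagent and a luminescence read; cells are HEK293 stably expressing a constitutively active GLP-1R plus cAMP-responsive luciferase.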
Potency is the fitted concentration of half-maximal effect; tags give direction and shape of the fitted curve.

Potency, inconclusive:
CCOC(=O)c1ccc(NC(=O)CSc2nnc(CNc3ccc(C)cc3)n2C)cc1 28.2 µM [inhibitor, single point], Cc1ccc(-c2cccc(C(=O)NCc3ccccc3)n2)c2ccccc12 20 µM [inhibitor, single point], COc1cccc(Cn2nnc(C(=O)NCc3ccc4c(c3)OCO4)c2N)c1 3.55 µM [inhibitor, partial curve], CC(=O)N(C)c1ccc(OCC(O)Cn2c3ccc(Cl)cc3c3cc(Cl)ccc32)cc1 (stereo unspecified) 1 µM [inhibitor, full curve, poor fit], COc1ccc(C(=O)OC(C(=O)c2ccccc2)c2ccccc2)cc1 (stereo unspecified) 15.8 µM [inhibitor, partial curve, poor fit], CCC(C(=O)OCC(=O)Nc1cccc(C(C)=O)c1)c1ccccc1 (stereo unspecified) 31.6 µM [inhibitor, single point], COc1ccccc1Nc1nnc(SCC2CCCCO2)s1 (stereo unspecified) 11.2 µM [inhibitor, single point], COCCN(CC(=O)Nc1cccc(C)c1C)C(=O)c1cc(-c2cccs2)nn1-c1ccccc1 28.2 µM [inhibitor, single point], O=C(NN1CCCCC1)c1ccc(COc2ccc(Cl)cc2)cc1 1.41 µM [inhibitor, full curve, poor fit], O=C(Nc1ccc(S(=O)(=O)N2CCCC2)cc1)c1cccc(OC(F)F)c1 22.4 µM [inhibitor, partial curve, poor fit], Cc1ccc(NC(=O)c2cc(S(=O)(=O)N3CCCC(C)C3)cn2C)c(Br)c1 (stereo unspecified) 8.91 µM [inhibitor, partial curve, poor fit], CCN(C(=O)/C=C/c1ccccc1)C1CCCCC1 11.2 µM [inhibitor, single point], COc1ccccc1C(=O)NCCC(=O)NCCC12CC3CC(CC(C3)C1)C2 22.4 µM [inhibitor, partial curve, poor fit], Cc1ccccc1S(=O)(=O)NC(=NCc1ccc(F)cc1)c1ccccc1 25.1 µM [inhibitor, single point], Cc1csc(NC(=O)Cc2ccccc2Cl)n1 28.2 µM [inhibitor, single point], CC(C)(C)n1nnnc1C(c1ccc(C(F)(F)F)cc1)N(Cc1ccc(F)cc1)Cc1ccco1 (stereo unspecified) 2.51 µM [inhibitor, full curve], COc1cc(NC(=S)NC2CC(C)(C)NC(C)(C)C2)cc(OC)c1 8.91 µM [inhibitor, partial curve, poor fit], COc1ccc(C(=O)NCC(C)(C)SCc2c(C)cc(C)cc2C)cc1 15.8 µM [inhibitor, single point], CSc1ccccc1NC(=O)C1=CC(c2ccc(C)cc2)=NS(=O)(=O)N1C 12.6 µM [inhibitor, single point], COc1ccc(C(=O)NNC(=O)c2ccccc2[N+](=O)[O-])cc1Br 2.51 µM [inhibitor, partial curve, poor fit], COc1ccc(C(=O)c2cn(Cc3ccc(F)cc3)c3ccc(C)cc3c2=O)cc1 15.8 µM [inhibitor, single point], COc1ccc(Cc2c(-c3ccc(Cl)cc3)nc3cc(C)c(Br)c(C)n23)c(C)c1 6.31 µM [inhibitor, partial curve, poor fit], Cc1ccc(-c2nc3ccccn3c2Nc2ccc3c(c2)OCO3)cc1 11.2 µM [inhibitor, partial curve, poor fit], Cc1ccc(O)c(C(=O)c2cnc3onc(-c4ccc(F)cc4)c3c2)c1 11.2 µM [inhibitor, partial curve], C/C(=N/NS(=O)(=O)c1ccc(C)c(C)c1)c1c[nH]c2ccccc12 12.6 µM [inhibitor, single point], CCOC(=O)[C@]12CCCC=C1N(Cc1ccccc1)C(=O)[C@H](CC(=O)NCC13CC4CC(CC(C4)C1)C3)C2 11.2 µM [inhibitor, partial curve, poor fit], CCOc1ccc2nc3ccc4[nH]onc4c3c2c1 28.2 µM [inhibitor, single point], O=C(C1CCCN(S(=O)(=O)Cc2ccccc2)C1)N1CCc2ccccc21 (stereo unspecified) 3.55 µM [inhibitor, full curve, poor fit], COc1ccc(C(=O)COC(=O)c2cccc(NC(=O)c3ccc(OC)c(OC)c3)c2)cc1 28.2 µM [inhibitor, single point], O=C(Cc1cccc2ccccc12)NCC(=O)Nc1ccccc1F 10 µM [inhibitor, partial curve], CCN(CC(=O)NCc1ccc(Cl)cc1)C(=O)COc1ccc(C)cc1C 12.6 µM [inhibitor, partial curve, poor fit], CCN1CCN(c2oc(COc3ccc(Cl)cc3)nc2C#N)CC1 10 µM [inhibitor, partial curve, poor fit], Cc1cccc(CCNC(=O)c2cc(S(=O)(=O)N3CCCC3)cn2C)c1 31.6 µM [inhibitor, single point], CN(C)CCCOC(=O)N1c2ccccc2C=Cc2ccccc21 28.2 µM [inhibitor, single point], COc1ccc(C)cc1N(C(=O)c1ccccc1F)c1nc2ccccc2s1 11.2 µM [inhibitor, partial curve, poor fit], O=C1COc2ccc(C(=O)CSc3ccc(Br)cc3)cc2N1 8.91 µM [inhibitor, partial curve, poor fit], COc1ccc(S(=O)(=O)N2CCN(C(=S)NCCc3ccccc3)CC2)cc1 10 µM [inhibitor, partial curve, poor fit], O=C(COc1ccc(Cl)cc1)Nc1cccc(S(=O)(=O)NCc2ccco2)c1 14.1 µM [inhibitor, single point], CCOC(=O)[C@@H]1[C@H]2COc3ccc(Br)cc3[C@H]2N2C(=O)N(c3ccc(C)cc3)C(=O)[C@]12C 28.2 µM [inhibitor, single point], COc1ccc(C(=O)/C(C#N)=N/Nc2ccccc2[N+](=O)[O-])cc1 1.58 µM [inhibitor, full curve, poor fit], COc1ccc(-c2csc(N3C(=O)C4C5c6ccccc6C(c6ccccc65)[C@@H]4C3=O)n2)cc1 (stereo partly specified) 5.62 µM [inhibitor, full curve, poor fit], Cc1ccc(CN2C(=O)C(O)(c3c[nH]c4ccccc34)c3cc(Cl)ccc32)cc1 (stereo unspecified) 28.2 µM [inhibitor, single point], COc1cccc(-c2nc(CS(=O)(=O)CC(=O)NCc3ccc(C)cc3)c(C)o2)c1 20 µM [inhibitor, single point], COc1cc(S(=O)(=O)N2CCN(c3ccc(F)cc3)CC2)ccc1Cl 31.6 µM [inhibitor, single point], O=C(NNS(=O)(=O)c1ccccc1[N+](=O)[O-])c1ccc(F)cc1 14.1 µM [inhibitor, partial curve, poor fit], CCCc1nc([N+](=O)[O-])c(S(=O)(=O)c2ccccc2)n1CC(C)C 1.58 µM [inhibitor, full curve, poor fit], COc1ccc(C2c3c(-c4c(C)cc(C)cc4O)n[nH]c3C(=O)N2Cc2ccco2)cc1 (stereo unspecified) 28.2 µM [inhibitor, single point], O=C(NCCCN1CCN(c2ccc(F)cc2)CC1)Nc1ccc(Cl)cc1 31.6 µM [inhibitor, single point], CC(CC(=O)Nc1ccc2c(c1)c(=O)n(C)n2-c1ccc2ccccc2c1)C(F)(F)F (stereo unspecified) 0.501 µM [inhibitor, full curve, poor fit]

Potency, inactive:
COc1cc(/C=N/NC(=O)c2cc(-c3cccs3)nc3ccccc23)ccc1O, COc1ccc(Cl)cc1N(CC(=O)N1CCN(Cc2ccccc2)CC1)S(C)(=O)=O, Cc1cc(NC(=O)/C=C/c2cccc(F)c2)n(-c2nc3ccccc3[nH]2)n1, COc1cc(OC)c(N(C)C(=O)Cn2ncc3c([nH]c4ccccc43)c2=O)cc1Cl, Cc1ccc(OCCOC(=O)c2cc(S(=O)(=O)N3CCCCC3)ccc2N2CCOCC2)cc1, COc1ccc(NC2CC(=O)N(c3cc([N+](=O)[O-])ccc3C)C2=O)cc1 (stereo unspecified), COc1ccc(N(C)C(=O)c2cc3c(Cl)nc4ccccc4c3s2)cc1, Cc1ccc(C)c(NC(=O)Cn2c(=O)n(Cc3ccco3)c(=O)c3oc4ccccc4c32)c1, CC/C(Cc1ccccc1)=N/NC(=O)CNC(=O)c1ccc(Cl)cc1Cl, O=C(NC1CCCCC1)c1cc(-c2cccc(Cl)c2)on1

Potency, active:
CCN(CC)CCN(C(=O)c1cc2ccccc2cc1OC)c1nc2ccc(OC)cc2s1 5.62 µM, Cc1ccc2c(c1)c1c(n2CC(O)CN2CCC(C)CC2)CCCC1 (stereo unspecified) 5.62 µM
